Here are results for 61 compounds from PubChem BioAssay AID485344 (National Center for Advancing Translational Sciences (NCATS), 2010).

For orientation: inhibition means the drop in the measured response relative to a control, in per cent.

Among all 340,000 compounds or so, about 6,900 (2%) were called active. Rule as the data show it: active = inhibition above about 30%; inactive = below that, where a call was filed. Only a part is listed here, and it is no random draw. Entries without a call were filed so in the source.

In this experiment the target is D(2) dopamine receptor (Homo sapiens) (UniProt P14416). Description: HTS Assay for Allosteric Antagonists of the Human D2 Dopamine Receptor: Primary Screen for Antagonists. Also: 0% is about no effect. To be noted: HEK293 TREx D2 cells, calcium flux, dopamine EC80; at 10 µM; stronger effect = higher value. The essentials: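 HEK293 T-REx D2 cells, tet-induced, calcium dye no-wash. Cpd pintool add, 180 s kinetic, then EC80 DA, 180 s kinetic. Ca flux read.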
Sequence of UniProt P14416 (P14416 whole entry, looked up): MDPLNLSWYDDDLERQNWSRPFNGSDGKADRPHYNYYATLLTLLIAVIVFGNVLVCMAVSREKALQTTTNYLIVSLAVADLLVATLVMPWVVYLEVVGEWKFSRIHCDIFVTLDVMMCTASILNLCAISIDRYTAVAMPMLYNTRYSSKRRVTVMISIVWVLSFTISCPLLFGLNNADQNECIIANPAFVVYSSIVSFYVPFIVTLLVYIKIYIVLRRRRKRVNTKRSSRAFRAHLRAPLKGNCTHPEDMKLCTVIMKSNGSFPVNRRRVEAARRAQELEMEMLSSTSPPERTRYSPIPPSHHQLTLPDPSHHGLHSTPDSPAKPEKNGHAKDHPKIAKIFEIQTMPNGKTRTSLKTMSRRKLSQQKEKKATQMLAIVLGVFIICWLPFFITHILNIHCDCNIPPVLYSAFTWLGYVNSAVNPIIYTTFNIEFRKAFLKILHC
(In general: A change in cytosolic calcium serves as a functional read-out for many receptors and channels.)
`COc1ccc(NC(=O)CSc2nc3ccccc3nc2N2CCCCC2)cc1`: the inhibition was -4.85%. As for `CCc1ccc(NC(=O)Cn2c(=O)n(-c3ccccc3C)c(=O)c3c2c2cc(OC)ccc2n3C)cc1`, the inhibition is -0.975%. For `Clc1cccc(CN2CCN(c3ncccn3)CC2)c1Cl` the value was active: 60.7%; for `CC(=O)Nc1ccc(C)cc1-c1nc2ccccc2n(CC(=O)c2ccc(C)c(C)c2)c1=O`, 23.1%; for `CN1CCN(c2nc3c(S(=O)(=O)c4ccc(Cl)cc4)nnn3c3ccsc23)CC1`, 3.93%. For `COc1ccc(S(=O)(=O)n2nc(C)c(S(=O)(=O)N3CCCCCC3)c2C)cc1C` the value was 16.7%; for `CCOc1ccccc1NS(=O)(=O)c1ccc(N2CCCCS2(=O)=O)cc1`, -8.62%. The result for `O=C(NCCc1csc(-c2ccc(C(F)(F)F)cc2)n1)C(=O)Nc1ccc(F)c(Cl)c1` reads 4.93%; that for `CCOC(=O)c1c(N)n(-c2ccc(CC)cc2)c2nc3ccccc3nc12`, 5.81%.

Take `Cc1ccccc1Nc1nn2c(=O)c3ccc(C(=O)NCc4cccs4)cc3nc2s1`: the inhibition was determined as 3.86%. The result for `Cc1cc(NS(=O)(=O)c2ccc(NC(=O)COc3ccccc3Br)cc2)no1` reads -4.42%.

`Cc1ccc(CNC(=O)CO/N=C/c2ccc(C(C)(C)C)cc2)cc1`: the inhibition was active: 37.9%. Consider `Cc1ccc(NC(=O)NCCN2CCN(c3ccccc3)CC2)cc1Cl`, for which the inhibition is active: 64.7%. For `Cc1cc(C)cc(NC(=O)CSc2ccc(-c3cccs3)nn2)c1` the value was -20.3%; for `COc1ccc(C(CNC(=O)c2oc3cc(C)c(C)cc3c2C)N2CCCCC2)cc1` (stereo unspecified), -0.998%; for `Cc1ccc(Nc2nc(N)nc(CSc3nc4ccccc4s3)n2)cc1`, -0.907%. For `Cc1c2cnn(CC(=O)NCc3ccc(Cl)cc3)c(=O)c2c(C)n1Cc1ccc(F)cc1` the value was -5.22%; for `O=C(Cc1ccc(F)cc1)NCCc1csc2nc(-c3ccccc3F)nn12`, 11.7%. `Cc1ccc(S(=O)(=O)C(CNC(=O)C(=O)NCCc2ccc(Cl)cc2)c2ccco2)cc1` (stereo unspecified): the inhibition was determined as 11.3%.

For the compound `CCOc1ccc(CNC(=O)C2CCCN(S(C)(=O)=O)C2)cc1OC` (stereo unspecified), the inhibition is active: 52.1%. Take `CCC(C)NC(=O)c1cc2n(n1)CCCN(Cc1ccc(C)cc1)C2=O` (stereo unspecified): the inhibition worked out at 10.2%.

Take `Cc1ccc(N2CCN(C(=O)c3cccn4c(=O)c5ccc(Cl)cc5nc34)CC2C)cc1` (stereo unspecified): the inhibition is -3.03%.

Take `CCCC1(C(=O)OC)NC(c2cccc(F)c2)C2C(=O)N(CC)C(=O)C21` (stereo unspecified): the inhibition is active: 30.8%. For `COc1ccc(CCNc2ncnc3c2cnn3-c2ccc(C)c(Cl)c2)cc1` the value was 10%; for `Cn1c(=O)c2ccccc2n(Cc2ccccc2Cl)c1=O`, active: 34.4%; for `Cc1ccc(NS(=O)(=O)c2ccc3oc(=O)c4ncn(C)c4c3c2)cc1C`, -27.9%. For `O=C(CCC1N=C2c3ccccc3N=C(SCc3ccc(Cl)cc3)N2C1=O)NCc1cccs1` (stereo unspecified) the value was 9.31%. The result for `O=[N+]([O-])c1ccccc1NCCNS(=O)(=O)c1ccc(Cl)cc1` reads active: 33.8%; that for `COc1ccc(-c2nn(-c3ccccc3F)cc2CNCCn2nc(C)cc2C)cc1`, active: 37.3%.

For `O=C(CCc1ccccc1)NC1CC(=O)N(c2cccc(F)c2)C1` (stereo unspecified), the inhibition amounted to 4.52%. The result for `COc1ccccc1C(=O)n1nc(-c2ccccc2)nc1NCc1ccc(Cl)cc1` reads -5.04%.

For `CCC(=O)N1CCc2cc(S(=O)(=O)NC(CC(C)C)C(=O)Nc3cccc(C)c3C)ccc21` (stereo unspecified), the inhibition was -0.324%. For `COc1cccc(NC(=O)C2CCC(CNS(=O)(=O)c3csc(C(N)=O)c3)CC2)c1` (stereo unspecified) the value was 13.4%. For `O=C(CCCN1CCOC(c2ccccc2)C1)c1ccc(F)cc1` (stereo unspecified) the value was active: 48.7%; for `CC(=O)c1ccc(NC(=O)CSc2nc(=O)n(Cc3ccccn3)c3c2CCC3)cc1`, 17.1%. For `CCc1ccc2oc(-c3cc(NC(=O)c4cc(OC)c(OC)c(OC)c4)ccc3O)nc2c1` the value was 12.5%; for `CCOCCCNC(=O)c1ccc2c(=O)n(CCc3ccccc3)c(=O)[nH]c2c1`, -8.38%.

For `COc1cccc(N2CCN(C(=O)c3cnn(-c4ccccc4Cl)c3C3CCN(C(=O)OC(C)(C)C)CC3)CC2)c1`, the inhibition is -4.1%. The result for `CCCCc1ccc(NS(=O)(=O)c2cc3c4c(c2)CC(=O)N4CCC3)cc1` reads 4.59%; that for `C=CCN1CCN(C(=O)c2cc3c(s2)CCC(CC)C3)CC1` (stereo unspecified), active: 45.8%. For `COc1ccccc1N1CCN(C(=O)C2CCN(S(=O)(=O)c3cn(C)cn3)CC2)CC1` the value was 16%.

Regarding `COc1ccccc1NC(=O)CN1C(=O)C(c2ccc(F)cc2)=NC12CCCCC2`, the inhibition was 17.1%. `COc1cccc(-c2cn3c(n2)sc2cc(C(=O)NC4CCCCC4)ccc23)c1`: the inhibition came to 6%. The result for `CCc1ccccc1Nc1nn2c(=O)c3ccc(C(=O)NC(C)C)cc3nc2s1` reads 10.5%. Turning to `CCN(CCCNC(=O)c1cc2c(=O)n(C)c3ccccc3c2s1)c1ccccc1`, the inhibition was -7.25%. For `COc1cc(NC(=O)C2CCN(c3cnccn3)CC2)cc(OC)c1` the value was -21.6%; for `O=C(Cn1c(=O)n(Cc2ccco2)c(=O)c2oc3ccccc3c21)Nc1ccccc1`, 16.9%; for `CCC(=O)N1CCc2cc(S(=O)(=O)NC(Cc3ccccc3)C(=O)O)ccc21` (stereo unspecified), -7.3%. For `O=C(CCN1CCOCC1)N/N=C/c1cc(Br)cc(Br)c1O` the value was active: 35.6%. With `O=C(CCCCCn1c(=O)c2sccc2n(Cc2ccccc2Cl)c1=O)NCc1ccc2c(c1)OCO2`, the inhibition is -5.56%.

With `COc1ccc(Nc2nc(N)nc(CSc3nnc(N)s3)n2)cc1`, the inhibition is active: 38.2%. The result for `COc1ccc(CCNC(=O)C(C)n2nc(C)c3sc4ccccc4c3c2=O)c(OC)c1` (stereo unspecified) reads 9.91%. In the case of `Cc1ccc(S(=O)(=O)Nc2ccc3nc(-c4cccc(Cl)c4)oc3c2)cc1`, the inhibition was -11.5%. For `Cc1ccc2oc(-c3ccc(Cl)c(NC(=O)c4cc5ccccc5o4)c3)nc2c1` the value was 1.79%; for `COc1ccc(Cl)cc1NC(=O)c1cnc2sc(N3CCOCC3)nn2c1=O`, -23.7%; for `Cc1ccc(CNC(=O)c2cnc3c(-c4ccc(F)cc4)c(C)nn3c2C)o1`, 4.15%.

`CCN(C(=O)C1CCN(S(=O)(=O)c2c(C)noc2/C=C/c2ccc(C)cc2)CC1)c1cccc(C)c1`: the inhibition was -15.3%. For `CCOc1ccc(-c2nonc2NC(=O)c2oc3ccc(CC)cc3c2C)cc1` the value was -6.29%; for `CN1CCN(CCNC(=O)c2cnn(-c3ccc(Cl)cc3)c2C2CCN(C(=O)OC(C)(C)C)CC2)CC1`, -3.25%; for `CCSc1nc2ccccc2c(OCc2ccccc2Cl)c1C(=O)OC`, 1.54%.

Regarding `COc1ccc(NC(=O)c2nc(-c3ccc(C)cc3)n3c2CCCCC3)cc1`, the inhibition was -14.1%.
